Test results: the supplement of paper PMC12217912
This is one part of the list. Sequences were assembled here from the parent chain. Values near 0.05 are background.

B1: TEV protease; numbered along this chain (parent)
chain: MGESLFKGPRDYNPISSSICHLTNESDGHTTSLYGIGFGPFIITNKHLFRRNNGTLVVQSLHGVFKVKDTTTLQQHLVDGRDMIIIRMPKDFPPFPQKLKFREPQREERICLVTTNFQTKSMSSMVSDTSCTFPSGDGIFWKHWIQTKDGQCGSPLVSTRDGFIVGIHSASNFTNTNNYFTSVPKNFMELLTNQEAQQWVSGWRLNADSVLWGGHKVFMVKPEEPFQPVKEATQL

Variants of: B1
Experiment: raw area under fraction-flipped curve 0-4 h after induction (AUC4h, not background-subtracted), DNA-recorder readout of cleavage of the substrate (dimensionless); higher = more cleavage of the substrate by the protease variant
Details: temperature: 34 °C; time window: 0-4 h after rhamnose induction
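Also: Bxb1 expression induced with 0.2% (w/v) L-rhamnose at OD600 near 0.5, cultures sampled hourly, flipped fraction per protease–substrate barcode pair counted by paired-end Illumina sequencing.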

| Variant | area with substrate ENLEFQS | area with substrate ENLGFQS | area with substrate ENLHFQS | area with substrate ENLLFQS | area with substrate ENLNFQS | area with substrate ENLQFQS | area with substrate ENLSFQS | area with substrate ENLVFQS | area with substrate ENLFFQS | area with substrate ENLKFQS |
| --- | --- | --- | --- | --- | --- | --- | --- | --- | --- | --- |
| T181V | 0.0476 | 0.0694 | 0.0821 | 0.0585 | 0.0755 | 0.062 | 0.0555 | 0.0562 |  |  |
| T181K |  |  |  |  | 0.0622 |  | 0.0613 |  | 0.0668 | 0.0702 |
| T181C |  |  |  |  | 0.0665 |  |  |  | 0.101 | 0.0575 |
| S182M |  | 0.0466 | 0.0576 |  |  |  |  |  |  |  |
| S182C |  |  | 0.134 | 0.0614 | 0.0687 | 0.0644 | 0.0509 |  |  |  |
| V67G | 0.031 | 0.06 |  | 0.0767 | 0.0594 | 0.0494 |  | 0.0278 |  |  |
| S158L |  |  | 0.0499 |  | 0.0596 | 0.0433 |  |  |  | 0.1 |
| L235Y |  |  |  |  |  |  | 0.0703 |  | 0.112 |  |
| L235C | 0.0874 |  |  | 0.0669 | 0.056 |  | 0.0672 | 0.0504 |  | 0.074 |
| L235F |  |  | 0.0132 |  |  |  |  |  | 0.104 |  |
| S124Y | 0.0698 |  | 0.0585 | 0.0747 | 0.0647 |  | 0.0844 | 0.0885 | 0.0709 | 0.0697 |
| D137S |  |  |  |  |  | 0.0686 | 0.0839 |  | 0.0709 |  |
| G28Y | 0.0567 |  |  |  |  | 0.0707 | 0.0664 |  | 0.0726 | 0.0691 |
| L99N |  |  | 0.0649 |  |  |  |  |  |  |  |
| D79Q |  |  | 0.0988 |  |  |  | 0.052 |  |  | 0.0939 |
| D79E | 0.0617 |  | 0.0649 |  |  |  |  |  |  |  |
| V210E |  |  |  |  |  | 0.0658 |  |  | 0.0654 | 0.0582 |
| H215S |  |  |  | 0.0579 | 0.0548 |  |  |  | 0.0431 |  |
| Q97D |  | 0.0721 |  |  | 0.0709 | 0.072 |  |  |  | 0.069 |
| Q97R |  |  | 0.065 |  |  |  |  |  |  |  |
| N178Y |  |  | 0.111 | 0.104 | 0.0724 |  | 0.0861 |  | 0.112 |  |
| N178M |  | 0.0695 | 0.0761 | 0.0785 |  |  | 0.0882 | 0.0936 |  |  |
| K7H |  |  | 0.0761 |  | 0.0778 |  |  |  | 0.0823 |  |
| K7W |  |  |  |  | 0.0604 |  | 0.0627 |  | 0.0789 | 0.097 |
| K7S | 0.077 |  |  |  |  |  |  |  |  | 0.114 |
| D11T |  |  | 0.064 |  | 0.0656 |  | 0.0788 |  | 0.0969 |  |
| S201H |  |  | 0.0753 |  | 0.0519 |  |  |  | 0.0573 | 0.066 |
| G153S |  |  | 0.056 | 0.0448 |  |  |  | 0.0543 |  |  |
| G153Q |  |  |  | 0.0435 | 0.0488 |  |  |  | 0.0403 | 0.0309 |

Same assay, conditions: temperature: 34 °C; time window: 0-4 h after rhamnose induction

| Variant | area with substrate ENLMFQS | area with substrate ENLWFQS | area with substrate ENLRFQS | area with substrate ENLPFQS | area with substrate ENLIFQS | area with substrate ENLDFQS | area with substrate ENLTFQS |
| --- | --- | --- | --- | --- | --- | --- | --- |
| T181K | 0.024 | 0.0387 |  |  |  |  |  |
| T181C |  |  | 0.132 |  |  |  |  |
| S182C |  | 0.0586 |  | 0.0462 |  |  |  |
| V67G | 0.0468 |  |  | 0.0305 |  |  |  |
| S158L |  |  | 0.0666 | 0.0837 |  |  |  |
| L235Y |  | 0.0462 |  | 0.0554 | 0.0576 |  |  |
| L235C |  | 0.0711 |  | 0.0642 | 0.0774 |  |  |
| L235F | 0.0872 |  | 0.0793 |  | 0.0749 |  |  |
| S124Y |  |  |  |  |  | 0.0483 |  |
| D137S |  | 0.058 |  | 0.0592 |  |  |  |
| G28Y |  |  | 0.0668 |  | 0.0578 | 0.0482 |  |
| L99N |  | 0.039 | 0.0968 |  | 0.0696 |  |  |
| D79Q |  |  |  | 0.0513 |  |  |  |
| D79E |  | 0.0683 |  |  |  |  |  |
| V210E |  |  | 0.0631 |  |  |  |  |
| Q97D | 0.0787 | 0.0682 |  | 0.0713 |  |  |  |
| N178Y |  |  | 0.11 |  | 0.145 |  | 0.0774 |
| K7H |  | 0.0612 |  |  |  |  |  |
| K7W |  |  | 0.0859 | 0.0878 |  |  |  |
| D11T |  |  | 0.0874 | 0.067 |  |  |  |
| S201H |  |  | 0.069 |  |  |  |  |
| G153S |  |  |  | 0.0575 |  |  |  |
| G153Q |  |  |  | 0.0757 | 0.052 |  |  |
